Test results taken from PubChem BioAssay AID1865 (National Center for Advancing Translational Sciences (NCATS), 2009).
The campaign covered roughly 280,000 compounds. About 540 (0.19%) were called active. Inconclusive means that the source gave no clear call. Such entries were picked first, then a sample of the others. The call rests on the fitted dose curve; in most records, active means well fitted activation curve with a large enough effect; inconclusive means small, poorly fitted or top-dose-only effect; inactive means flat fitted curve, though single readings scatter. Where the call is inconclusive, the potency comes from a doubtful curve fit.
Potency means the concentration at half of the fitted maximal effect; tags describe the fitted curve by direction and shape.

Experiment: Quantitative High-Throughput Screen for Regulators of Epigenetic Control; further: nearly all actives have a fitted effect of over 60% in size; on GFP activation: % of control where 0% means no effect
Details: murine LDR cells, GFP reporter derepression, 30 h; GFP activation: at 53.9 µM (top of the series)
Summary of the method: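 Derepression of a silenced CMV-GFP reporter in murine LDR cells is scored by enumerating GFP-positive cells with a laser-scanning microplate cytometer after 30 hours of treatment at 37 C.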
With `Cc1ccc(-c2cc(-c3ccc4c(c3)OCO4)c(C#N)c(N)n2)o1` the “GFP activation” value was inactive: -4.17%. With `Cc1ccc(CNC(=O)C2CCC(CNS(=O)(=O)c3ccc4c(c3)CCCC(=O)N4)CC2)cc1` (configuration not stated) the Potency was inconclusive: 35.5 µM [activator, single point]. For `CN(C)CCCN(C(=O)CCOc1ccccc1)c1nc2c(F)cccc2s1`, the Potency was inconclusive: 3.98 µM [activator, single point]. For `Cc1ccc(OCC(=O)N/N=C\c2c(C)n(C)c3ccccc23)c([N+](=O)[O-])c1`, the Potency was inconclusive: 15.8 µM [activator, single point]. In the case of `CN1CCN(C(=O)CSc2nc(-c3cccs3)cc(-c3cccs3)c2C#N)CC1`, the Potency is reported as inconclusive: 25.1 µM [activator, single point]. In the case of `Cc1cc(/C=C2/C(=O)N(C)C(=S)N2C)ccc1N1CCCC1`, the Potency is reported as inconclusive: 22.4 µM [activator, single point]. For `ClCC1NCC(c2ccccc2Cl)c2c1[nH]c1ccccc21` (configuration not stated), the Potency was inconclusive: 31.6 µM [activator, single point]. In the case of `CCn1cc(C(=O)N2CCN(c3ccc(OC)cc3)CC2)c(=O)c2cc(S(=O)(=O)N(C)C3CCCCC3)ccc21`, the “GFP activation” value is reported as inactive: 9.84%. For `COc1ccccc1CNC(=O)c1ccc2nc3[nH]c4ccccc4c3nc2c1`, the Potency was inconclusive: 35.5 µM [activator, single point]. For `CC(C)c1ccc(NC(=S)NN(c2ccccc2)c2ccccc2)cc1`, the Potency was inconclusive: 35.5 µM [activator, single point]. With `Cc1oc(C)c2c(=O)cc(-c3ccc4c(c3)OCO4)cc(OC(=O)c3ccc(Cl)cc3)c12` the “GFP activation” value was inactive: 1.85%. With `O=C(/C=C\Nc1ccc(Cl)cn1)c1ccc(Br)cc1` the Potency was inconclusive: 35.5 µM [activator, single point]. For `Cc1cc(/C=N/NC(=O)c2cccc(N(C)C)c2)c(C)n1-c1cc(C(=O)O)cc(C(=O)O)c1`, the “GFP activation” value was inactive: -2.89%. In the case of `CC(=O)c1ccc(NC(=O)Cn2ncc3c(C)n(Cc4ccc(F)cc4)c(C)c3c2=O)cc1`, the Potency is reported as inconclusive: 35.5 µM [activator, single point]. In the case of `c1ccc(Cn2c(-c3ccco3)nc3nc4ccccc4nc32)cc1`, the “GFP activation” value is reported as inactive: 2%. With `COC(=O)CCC(=O)Nc1sc(C)c(C)c1C(N)=O` the “GFP activation” value was inactive: 1.49%. With `CCOc1ccc(CCNC(=O)c2cccc(-n3c(C)nc4cccnc43)c2)cc1` the “GFP activation” value was inactive: -1.62%. In the case of `O=C(COc1ccc(Cl)cc1)Nc1ccc(C(=O)NCc2cccnc2)cc1`, the “GFP activation” value is reported as inactive: 1%. With `CCCCCCCCNC(C)C(O)c1ccc(SC(C)C)cc1` (configuration not stated) the Potency was inconclusive: 35.5 µM [activator, single point]. With `COC(=O)c1ccc2c(c1)N(Cc1cc(C)ccc1C)C(=O)c1ccccc1S2=O` (configuration not stated) the “GFP activation” value was inactive: 0.421%. For `CC1(NC(=S)N(CCO)CCO)CCS(=O)(=O)C1` (configuration not stated), the Potency was inconclusive: 6.31 µM [activator, single point]. For `CCOC(=O)c1c(NC(=O)/C=C\C(=O)O)sc(C)c1-c1ccccc1`, the “GFP activation” value was inactive: 13.3%. For `Cc1cccc(NC(=O)N2CCC(n3c(C)nc4cccnc43)CC2)c1`, the Potency was inconclusive: 4.47 µM [activator, single point]. In the case of `CCN(c1ccccc1)S(=O)(=O)c1nnc(NC(=O)c2ccccc2OC)s1`, the Potency is reported as inconclusive: 25.1 µM [activator, single point]. In the case of `CCOCCCN1C(=O)CN(C2CCCCC2)C(=O)C1c1ccc(OC)c(OC)c1` (configuration not stated), the “GFP activation” value is reported as inactive: -1.03%. For `COc1ccccc1CNc1nc2ccc(C)cc2n2nnnc12`, the Potency was inconclusive: 35.5 µM [activator, single point]. For `Cc1cc(C)c2c(NC(=O)CCl)nn(C)c2n1`, the Potency was inconclusive: 31.6 µM [activator, single point]. For `Cc1cccc(C2CN(C)CCc3c2cc(O)c(O)c3Cl)c1` (configuration not stated), the “GFP activation” value was inactive: -0.108%. With `Cc1cccc(Cn2c(CNS(=O)(=O)c3ccc(C(C)C)cc3)nc3cccnc32)c1` the “GFP activation” value was inactive: 0%. In the case of `NNC(=O)C1=NOC2COC3(CCN(c4ncccn4)CC3)OCC12` (configuration not stated), the “GFP activation” value is reported as inactive: 0.337%. With `CSc1nc(-c2ccccc2)c(C#N)c(=O)[nH]1` the “GFP activation” value was inactive: -0.717%. In the case of `O=C(NCc1cccnc1)c1ccc(Cn2c(=S)[nH]c3ccc(Br)cc3c2=O)cc1`, the Potency is reported as inconclusive: 22.4 µM [activator, single point]. For `Cc1ccc(-c2csc3nc(C)n(-n4c(C)ccc4C)c(=O)c23)o1`, the Potency was inconclusive: 31.6 µM [activator, single point]. For `COCCNC(=S)N/N=C(\C)c1ccc(OC)cc1`, the “GFP activation” value was inactive: 0.935%. With `S=C(NCCc1ccccn1)NC1CCCCC1` the “GFP activation” value was inactive: 0%. In the case of `N#C/C(=C\c1ccc(OCc2ccc(Cl)cc2Cl)cc1)c1nc2ccccc2[nH]1`, the Potency is reported as inconclusive: 28.2 µM [activator, single point]. For `C(=C/c1nccc2c1[nH]c1ccccc12)/c1ccc2c(c1)OCO2`, the Potency was inconclusive: 12.6 µM [activator, partial curve]. With `COc1ccc2nc(N3C(=O)/C(=C/c4ccc(Cl)cc4)NC3=S)sc2c1` the Potency was inconclusive: 35.5 µM [activator, single point]. For `CC1Cc2cc(S(=O)(=O)CCC(=O)Nc3ccccc3F)ccc2N1C(=O)C1CC1` (configuration not stated), the “GFP activation” value was inactive: 0.672%. With `Cc1cccc(CNc2nc(-c3ccc(C(=O)N(C)C)cc3)nc3ccccc23)c1` the Potency was inconclusive: 6.31 µM [activator, single point]. In the case of `O=C(C1CCC(CNS(=O)(=O)c2ccc(Br)s2)CC1)N1CCN(c2ccc(F)cc2)CC1` (configuration not stated), the Potency is reported as inconclusive: 14.1 µM [activator, single point]. For `Cc1ccc(-n2c(=O)c3ccc(C(=O)NCc4ccco4)cc3n(CC(=O)Nc3ccc(C)c(F)c3)c2=O)cc1`, the Potency was inconclusive: 20 µM [activator, single point]. For `Cc1cc(NC(=NC2CC2)c2ccccc2)n(-c2ccccc2)n1`, the “GFP activation” value was inactive: 2.25%. For `O=C(Nc1nnc(-c2ccncc2)o1)C1CCCCC1`, the “GFP activation” value was inactive: 0%. For `Cc1[nH]c2ccccc2c1/C=C/C(=O)c1ccccc1`, the Potency was inconclusive: 31.6 µM [activator, single point]. For `O=C(Cn1ncn2cccc2c1=O)NCc1cccc(Br)c1`, the “GFP activation” value was inactive: -2.76%. For `COc1cc2c(=O)n(Cc3ccco3)c(=O)n(CC(=O)c3ccc(Br)cc3)c2cc1OC`, the “GFP activation” value was inactive: -1.59%.
